The whole screen tested about 150,000 compounds, of which about 540 (0.36%) showed an effect of 50% or more. This is one part of the list.

This assay has as its system Plasmodium falciparum. Nature of the assay: Primary screen in NF54 nanoGlo assay, in single point, at 2uM, 72h; a lower Z score goes with more inhibition. Conditions: timepoint 72 hour. The format is functional, Erythrocyte.
For `Cc1[nH]ncc1-c1nnc(NC(=O)C2CC=CC2)s1`, the % Inhibition (in general, the change of the read-out against control, counted positive when it falls) was -50% and the Z score came to 5.85.

In the case of `Cc1n[nH]c(C)c1CCC(=O)N1CCN([C@@H](c2ccccc2)c2ccc(Cl)cc2)CC1`, the “% Inhibition” value was -16% and the Z score was found to be 2.

With `Cn1ccnc1CNC(=O)c1coc(COc2cccc(C(F)(F)F)c2)n1`, the “% Inhibition” value is on record as -6% and the Z score is 0.94.

`Cc1ccc(CN(C(=O)c2cccc(OCC(N)=O)c2)C2CCCC2)s1`: the “% Inhibition” value is given as -11% and the Z score came out at 1.47.

For `O=C(CCN1CCCC1=O)Nc1ccc(COC2CCCC2)cc1`, the “% Inhibition” value was -17% and the Z score was 3.33.

Regarding `CC(C)CN(CC(=O)N(CCc1c[nH]c2ccccc12)Cc1ccccc1)C(=O)Nc1ccc(C#N)cc1`, the “% Inhibition” value is 1% and the Z score was -0.1.

For the compound `CC(C)n1cc(-c2cc(C(=O)N3CCCC3)c3ccc(Cl)cc3n2)cn1`, the “% Inhibition” value was 1% and the Z score was -0.12.

For `O=C(Cn1c(-c2cnccn2)nc2ccccc21)Nc1ccc(F)c(Cl)c1`, the “% Inhibition” value is 14% and the Z score is -1.87.

Turning to `CN1CCC[C@@H]1CCNC(=O)c1ccc2nc(-c3ccc(F)cc3)cn2c1`, the “% Inhibition” value is 8% and the Z score is -1.12.

As for `Cc1cc(CN2CCOc3cc(F)c(Br)cc32)no1`, the “% Inhibition” value is -7% and the Z score is on record as 1.1.

Take `CC1CC(C(=O)N(C)CCN(C)C(=O)C2CC(C)C2)C1` (stereo not drawn): the “% Inhibition” value is -7% and the Z score stood at 0.91.

With `O=C(NCc1ccc2c(c1)CCCN2)c1ocnc1C1CC1`, the “% Inhibition” value is on record as -5% and the Z score was determined as 0.56.

Consider `COc1cc(NC(=O)N2C[C@@H]3C[C@H]2C[C@@H]3NS(=O)(=O)c2ccccc2)cc(OC)c1`, for which the “% Inhibition” value amounted to 0% and the Z score amounted to 0.02.

Take `Oc1nnc(/C=C/c2ccc(F)cc2)o1`: the “% Inhibition” value is -4% and the Z score is listed as 0.6.

As to `COc1ccccc1CNCC1(S(=O)(=O)NC(C)(C)C)CC1`, the “% Inhibition” value is -3% and the Z score is listed as 0.49.

For the compound `O=C(NC[C@H]1CCC[C@@H](CO)C1)c1cccc(C(F)F)c1F`, the “% Inhibition” value is -12% and the Z score worked out at 1.18.

With `Cc1nnsc1C(=O)N[C@@H](Cn1cncn1)C(C)C`, the “% Inhibition” value worked out at 1% and the Z score is listed as -0.26.

Take `Cc1cc(C)c(C(=O)N2C[C@H](F)C[C@H]2C(N)=O)o1`: the “% Inhibition” value worked out at 1% and the Z score is -0.13.

For `CCC[C@H](C)CC(=O)Nc1c(S(C)(=O)=O)cnc2cc(C)nn12`, the “% Inhibition” value is listed as -5% and the Z score stood at 1.06.

On to `CN(CCCNc1nccnc1C#N)CC(F)(F)F`, for which the “% Inhibition” value is -3% and the Z score is reported as 0.52.

Consider `CCN(CC)[C@H](CNC(=O)C1=NN(C)C(=O)CC1)Cc1ccccc1`, for which the “% Inhibition” value was 38% and the Z score is -5.12.

For `CC(C)NC(=O)[C@@H]1COC2(CCN(C(=O)CC(C)(C)C)CC2)N1C(=O)c1ccccc1`, the “% Inhibition” value is recorded as -1% and the Z score came out at 0.1.

On to `Cc1ccccc1OCCCC(=O)Nc1c(C)n(C)n(-c2ccccc2)c1=O`, for which the “% Inhibition” value stood at 0% and the Z score is reported as -0.02.

`Cc1cc(Cl)ccc1NC(=O)c1cn(-c2cc(-c3noc(C4CC4)n3)ccc2C)nc1C`: the “% Inhibition” value is recorded as 0% and the Z score turned out to be 0.01.

Regarding `Cc1ccc(CNC(=O)N2CCC(Cc3nncn3C)CC2)cc1`, the “% Inhibition” value is -15% and the Z score is on record as 1.72.

Consider `CC(C)n1ncnc1CNC1(Cc2ccc(F)cc2)CCOCC1`, for which the “% Inhibition” value is -5% and the Z score amounted to 0.76.

Consider `CN(C(=O)CN1C(=O)COc2ccc(Cl)cc21)c1nccs1`, for which the “% Inhibition” value is given as -3% and the Z score stood at 0.47.

Consider `CCn1c(=O)sc2cc(S(=O)(=O)N3CCC(C(=O)N[C@H]4CCCc5ccccc54)CC3)ccc21`, for which the “% Inhibition” value is -21% and the Z score is 2.48.

Turning to `O=C(COCc1ccccc1)N1CCC2(CC1)c1ccccc1C[C@@H]2O`, the “% Inhibition” value was -7% and the Z score stood at 0.96.

On to `COc1nc(C)cc(N2CCC(O)(c3nccn3C)CC2)n1`, for which the “% Inhibition” value is -17% and the Z score amounted to 3.24.

Take `Cc1ccc(Cn2cnc3c2c(=O)n(C2CC2)c(=O)n3-c2ccc(C)cc2)cc1`: the “% Inhibition” value is recorded as 8% and the Z score is -1.04.

With `CC[C@H](OC)C(=O)NCC1(N2CCCC2)CCCCC1`, the “% Inhibition” value was -11% and the Z score was found to be 2.09.

For the compound `CC[C@H](O)CCCNC(=O)CCCC1CCCCC1`, the “% Inhibition” value is -7% and the Z score is recorded as 1.06.

For `CCn1c(=O)c2ccn(CC(=O)NCCCN3CCOCC3)c2n(CC)c1=O`, the “% Inhibition” value is reported as -15% and the Z score is on record as 1.47.

With `COCc1nnc2n1CCC1(CC2)CCN(C(=O)NCc2cccc(F)c2)CC1`, the “% Inhibition” value is reported as -15% and the Z score amounted to 1.44.

Take `CC(C)C(NC(=O)N(C)CC1CCCC1O)c1ccncc1` (stereo not drawn): the “% Inhibition” value is given as -10% and the Z score was 1.32.

On to `Cc1nc2n(n1)C[C@@H](NC1CC(c3ccc(F)cc3)C1)CC2` (stereo partly drawn), for which the “% Inhibition” value is recorded as -7% and the Z score is reported as 1.11.

As for `O=C(O)c1cccc2c(-c3cc(-c4ccccc4)n(-c4ccccc4)n3)ccc(C(=O)O)c12`, the “% Inhibition” value was determined as 32% and the Z score is listed as -4.07.

As for `Cc1ccc2c(c1)C(NC(=O)NC(C)Cn1cncn1)C(C)C2` (stereo not drawn), the “% Inhibition” value is listed as -6% and the Z score was 0.7.

With `O=C(CNc1ccccc1Oc1ncc(Cl)cc1Cl)Nc1ccc(F)cc1Cl`, the “% Inhibition” value is recorded as -2% and the Z score was found to be 0.28.

`CC(C)n1ncnc1CNc1ccc(Br)c(CO)c1`: the “% Inhibition” value was -12% and the Z score amounted to 1.2.

As to `CNC(=O)C(C#N)C(=O)CC(C)C1CCCCC1` (stereo not drawn), the “% Inhibition” value is on record as -18% and the Z score is on record as 2.27.

Regarding `C[C@H]1CCCN(C(=O)NCC(=O)N2CCc3ccccc3C2)C1`, the “% Inhibition” value is on record as -4% and the Z score is listed as 0.68.

For `Cc1cccc([C@H]2C[C@@H](c3ccccc3Cl)Nc3ncnn32)c1`, the “% Inhibition” value is given as -15% and the Z score came out at 2.06.

For the compound `COC(C)c1noc(CN(C)C(C)c2nnc(C)s2)n1` (stereo not drawn), the “% Inhibition” value was -3% and the Z score is given as 0.62.

As for `O=C(NCC1(c2ccsc2)CCOCC1)[C@H]1CCOC1`, the “% Inhibition” value is -13% and the Z score came out at 1.92.

For the compound `O=C1[C@H]2[C@H](Cc3ccc(O)cc3)N[C@@]3(C(=O)Nc4ccc(Br)cc43)[C@H]2C(=O)N1CC1CCCO1` (stereo partly drawn), the “% Inhibition” value amounted to 16% and the Z score is -1.98.

For the compound `CC(C)NC(=O)C(C#N)C(=O)C1COc2ccc(Br)cc21` (stereo not drawn), the “% Inhibition” value is -12% and the Z score came out at 1.54.

In the case of `CC(=O)Nc1[nH]nc(-c2ccc(C)cc2)c1C`, the “% Inhibition” value is -5% and the Z score was found to be 0.73.

With `CCC(CNCC1(O)CCOC1C)c1ccccc1` (stereo not drawn), the “% Inhibition” value is -7% and the Z score came out at 1.12.

`CCC(CC)[C@@H](O)CNC(=O)NC1CCC1`: the “% Inhibition” value is recorded as -11% and the Z score came out at 1.74.

For `CCc1ccnc(NC2CCN(C(C)=O)CC2)c1`, the “% Inhibition” value is listed as -9% and the Z score is on record as 1.2.

As for `Cc1ccc(Cc2nc(CN(C(=O)OC(C)(C)C)C3CC3)no2)cn1`, the “% Inhibition” value was 1% and the Z score is -0.18.

`c1cnc(N2CCC(c3nnc(NCc4cccs4)o3)CC2)nc1`: the “% Inhibition” value is listed as -8% and the Z score turned out to be 1.15.

(Values after ChEMBL document CHEMBL4888484, “Replenishing the malaria drug discovery pipeline: Screening and hit evaluation of the MMV Hit Generation Library 1 (HGL1) against asexual blood stage Plasmodium falciparum ,using a nano luciferase reporter read-out” (2022).)
